Here are results for eleven compounds from the antibiotic and cytotoxicity screens of Wong et al. (2023).

Experiment [1] deals with HSkMC (human skeletal muscle cells). Kind of experiment: cytotoxicity call (relative viability < 0.9). The following applies: 10 µM.
The subject of experiment [2] is HepG2. Kind of experiment: cytotoxicity call (relative viability < 0.9). The following applies: 10 µM.
The test system of experiment [3] is S. aureus RN4220. Kind of experiment: growth inhibition call (relative growth <= 0.2). Particulars: 50 µM.

Some of the results follow.

For `Nc1ccc([C@@H](O)[C@@H](O)CO)cc1`, the cytotoxicity call in experiment [1] and in experiment [2] was “inactive” throughout. Further, the growth inhibition call in experiment [3] is “inactive”.

As for `C[C@@H]1CN([C@@H](C)CO)C(=O)Cc2cc(NC(=O)C3CC3)ccc2O[C@H]1CN(C)C(=O)Nc1ccc(F)cc1`, the cytotoxicity call in experiment [1] and in experiment [2] was “inactive” each time. In addition, the growth inhibition call in experiment [3] is “inactive”.

`CO[C@H]1CN(C)C(=O)c2cc(NC(=O)C3CC3)ccc2OC[C@@H](C)N(C(=O)Cc2ccccn2)C[C@@H]1C`: the cytotoxicity call in experiment [1] and in experiment [2] was “inactive” throughout. For the same compound, the growth inhibition call in experiment [3] is “inactive”.

Take `Cl.N=C(N)NCCCC(N)C(=O)O` (stereo not drawn): the cytotoxicity call in experiment [1] and in experiment [2] was “inactive” each time. In addition, the growth inhibition call in experiment [3] is “inactive”.

Consider `Cc1noc(C)c1S(=O)(=O)N(C)C[C@H]1Oc2ccc(NC(=O)Nc3ccccc3)cc2CC(=O)N([C@@H](C)CO)C[C@H]1C`, for which the cytotoxicity call in experiment [1] and in experiment [2] was “inactive” each time. In experiment [3], the growth inhibition call is “inactive”.

Take `CCOC(=O)[C@H](Cc1ccccc1)NC(=O)c1cc(Cl)c(OCCN2CCN(C)CC2)c(Cl)c1O`: the cytotoxicity call in experiment [1] and in experiment [2] was “inactive” throughout. For the same compound, the growth inhibition call in experiment [3] was “inactive”.

For `Cc1noc(C)c1NC(=O)N(C)C[C@@H]1Oc2ccc(NC(=O)NC(C)C)cc2C(=O)N([C@H](C)CO)C[C@H]1C`, the cytotoxicity call in experiment [1] and in experiment [2] was “inactive” in each case. Moreover, the growth inhibition call in experiment [3] was “inactive”.

For the compound `C[C@@H]1CN([C@@H](C)CO)C(=O)c2cc(NC(=O)C3CCCCC3)ccc2O[C@@H](C)CCCCO[C@@H]1CN(C)C(=O)Nc1cccc2ccccc12`, the cytotoxicity call in experiment [1] was “inactive”. Also, the cytotoxicity call in experiment [2] is “active”. For the same compound, in experiment [3], the growth inhibition call is “inactive”.

In the case of `C[C@H]1CN([C@@H](C)CO)C(=O)c2cc(NC(=O)Nc3cccc4ccccc34)ccc2O[C@H]1CN(C)Cc1ccc(Cl)c(Cl)c1`, the cytotoxicity call in experiment [1] and in experiment [2] was “inactive” throughout. In experiment [3], the growth inhibition call was “inactive”.

In the case of `CC(C)(C)NCC(O)COc1nsnc1N1CCOCC1.O=C(O)C=CC(=O)O` (stereo not drawn), the cytotoxicity call in experiment [1] and in experiment [2] was “inactive” in each case. Further, in experiment [3], the growth inhibition call was “inactive”.

Take `Cc1c(-c2cnccn2)ssc1=S`: the cytotoxicity call in experiment [1] and in experiment [2] was “inactive” each time. The growth inhibition call in experiment [3] was “inactive”.
